{"source": "paper PMC12820563", "note": "Some of the results follow. The list includes weakly bound sequences.", "data": [{"target": "T1, MBP-FoxP3dN (UniProt Q99JB6)", "T1 sequence": "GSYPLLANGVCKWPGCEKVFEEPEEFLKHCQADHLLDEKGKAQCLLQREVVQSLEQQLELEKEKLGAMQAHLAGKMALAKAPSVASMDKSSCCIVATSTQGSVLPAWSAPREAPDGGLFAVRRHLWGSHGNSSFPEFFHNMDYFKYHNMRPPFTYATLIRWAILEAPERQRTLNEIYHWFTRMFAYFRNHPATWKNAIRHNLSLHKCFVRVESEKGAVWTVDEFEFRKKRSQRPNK", "assay": "PD-seq (MBP pull-down with sequencing)", "conditions": "20 mM Tris-HCl pH 7.5, 100 mM NaCl, 1.5 mM MgCl2, 0.4 uM protein, 0.1 uM dsDNA library, 30 min, room temperature, amylose pull-down; high values mean tight binding; double strand, one strand shown", "values": [{"sequence": "GATGATTGTTCTCCCAGCTGATGAATTATATCCATCGAGTAAACAAATTTTCCTAATCTTTCTGTTCAAGCGCCATCTAC", "binding signal (RPM ratio (pull-down/input))": 0.488}, {"sequence": "GATGATTGTTCTCCCAGCTGATGAATTAAAGGGTTCGAGTAAACAAATTTTCCTAATCTTTCTGTTCAAGCGCCATCTAC", "binding signal (RPM ratio (pull-down/input))": 0.368}, {"sequence": "GATGATTGTTCTCCCAGCTGATGAATTCTATGGCTCGAGTAAACAAATTTTCCTAATCTTTCTGTTCAAGCGCCATCTAC", "binding signal (RPM ratio (pull-down/input))": 0.47}, {"sequence": "GATGATTGTTCTCCCAGCTGATGAATTTGACTGCTCGAGTAAACAAATTTTCCTAATCTTTCTGTTCAAGCGCCATCTAC", "binding signal (RPM ratio (pull-down/input))": 0.515}, {"sequence": "GATGATTGTTCTCCCAGCTGATGAATTTACCTGTTCGAGTAAACAAATTTTCCTAATCTTTCTGTTCAAGCGCCATCTAC", "binding signal (RPM ratio (pull-down/input))": 0.503}, {"sequence": "GATGATTGTTCTCCCAGCTGATGAATTTAATAAATCGAGTAAACAAATTTTCCTAATCTTTCTGTTCAAGCGCCATCTAC", "binding signal (RPM ratio (pull-down/input))": 0.244}, {"sequence": "GATGATTGTTCTCCCAGCTGATGAATTATTTCTATCGAGTAAACAAATTTTCCTAATCTTTCTGTTCAAGCGCCATCTAC", "binding signal (RPM ratio (pull-down/input))": 0.413}, {"sequence": "GATGATTGTTCTCCCAGCTGATGAATTCTGTGCTTCGAGTAAACAAATTTTCCTAATCTTTCTGTTCAAGCGCCATCTAC", "binding signal (RPM ratio (pull-down/input))": 1.15}, {"sequence": "GATGATTGTTCTCCCAGCTGATGAATTTGCACTCTCGAGTAAACAAATTTTCCTAATCTTTCTGTTCAAGCGCCATCTAC", "binding signal (RPM ratio (pull-down/input))": 1}, {"sequence": "GATGATTGTTCTCCCAGCTGATGAATTGCGTCTCTCGAGTAAACAAATTTTCCTAATCTTTCTGTTCAAGCGCCATCTAC", "binding signal (RPM ratio (pull-down/input))": 1.58}, {"sequence": "GATGATTGTTCTCCCAGCTGATGAATTGTGCCAGTCGAGTAAACAAATTTTCCTAATCTTTCTGTTCAAGCGCCATCTAC", "binding signal (RPM ratio (pull-down/input))": 3.33}, {"sequence": "GATGATTGTTCTCCCAGCTGATGAATTATGGTCGTCGAGTAAACAAATTTTCCTAATCTTTCTGTTCAAGCGCCATCTAC", "binding signal (RPM ratio (pull-down/input))": 0.701}, {"sequence": "GATGATTGTTCTCCCAGCTGATGAATTATCCGCCTCGAGTAAACAAATTTTCCTAATCTTTCTGTTCAAGCGCCATCTAC", "binding signal (RPM ratio (pull-down/input))": 0.497}, {"sequence": "GATGATTGTTCTCCCAGCTGATGAATTAATAACATCGAGTAAACAAATTTTCCTAATCTTTCTGTTCAAGCGCCATCTAC", "binding signal (RPM ratio (pull-down/input))": 1.82}, {"sequence": "GATGATTGTTCTCCCAGCTGATGAATTATCTGCCTCGAGTAAACAAATTTTCCTAATCTTTCTGTTCAAGCGCCATCTAC", "binding signal (RPM ratio (pull-down/input))": 0.443}, {"sequence": "GATGATTGTTCTCCCAGCTGATGAATTTTCTCGTTCGAGTAAACAAATTTTCCTAATCTTTCTGTTCAAGCGCCATCTAC", "binding signal (RPM ratio (pull-down/input))": 0.27}, {"sequence": "GATGATTGTTCTCCCAGCTGATGAATTGGATTGGTCGAGTAAACAAATTTTCCTAATCTTTCTGTTCAAGCGCCATCTAC", "binding signal (RPM ratio (pull-down/input))": 1.26}, {"sequence": "GATGATTGTTCTCCCAGCTGATGAATTGGTATGGTCGAGTAAACAAATTTTCCTAATCTTTCTGTTCAAGCGCCATCTAC", "binding signal (RPM ratio (pull-down/input))": 1.45}, {"sequence": "GATGATTGTTCTCCCAGCTGATGAATTATAAGTGTCGAGTAAACAAATTTTCCTAATCTTTCTGTTCAAGCGCCATCTAC", "binding signal (RPM ratio (pull-down/input))": 0.624}, {"sequence": "GATGATTGTTCTCCCAGCTGATGAATTGAGCGTTTCGAGTAAACAAATTTTCCTAATCTTTCTGTTCAAGCGCCATCTAC", "binding signal (RPM ratio (pull-down/input))": 3}, {"sequence": "GATGATTGTTCTCCCAGCTGATGAATTTTATCGATCGAGTAAACAAATTTTCCTAATCTTTCTGTTCAAGCGCCATCTAC", "binding signal (RPM ratio (pull-down/input))": 0.479}, {"sequence": "GATGATTGTTCTCCCAGCTGATGAATTAACCCGGTCGAGTAAACAAATTTTCCTAATCTTTCTGTTCAAGCGCCATCTAC", "binding signal (RPM ratio (pull-down/input))": 0.173}, {"sequence": "GATGATTGTTCTCCCAGCTGATGAATTAAGGTAATCGAGTAAACAAATTTTCCTAATCTTTCTGTTCAAGCGCCATCTAC", "binding signal (RPM ratio (pull-down/input))": 0.521}, {"sequence": "GATGATTGTTCTCCCAGCTGATGAATTCAGCTTCTCGAGTAAACAAATTTTCCTAATCTTTCTGTTCAAGCGCCATCTAC", "binding signal (RPM ratio (pull-down/input))": 1.94}, {"sequence": "GATGATTGTTCTCCCAGCTGATGAATTGACGCTGTCGAGTAAACAAATTTTCCTAATCTTTCTGTTCAAGCGCCATCTAC", "binding signal (RPM ratio (pull-down/input))": 0.713}, {"sequence": "GATGATTGTTCTCCCAGCTGATGAATTACCAGCCTCGAGTAAACAAATTTTCCTAATCTTTCTGTTCAAGCGCCATCTAC", "binding signal (RPM ratio (pull-down/input))": 0.34}, {"sequence": "GATGATTGTTCTCCCAGCTGATGAATTCGCATAATCGAGTAAACAAATTTTCCTAATCTTTCTGTTCAAGCGCCATCTAC", "binding signal (RPM ratio (pull-down/input))": 0.609}, {"sequence": "GATGATTGTTCTCCCAGCTGATGAATTGATCTACTCGAGTAAACAAATTTTCCTAATCTTTCTGTTCAAGCGCCATCTAC", "binding signal (RPM ratio (pull-down/input))": 0.425}, {"sequence": "GATGATTGTTCTCCCAGCTGATGAATTGGCGGCTTCGAGTAAACAAATTTTCCTAATCTTTCTGTTCAAGCGCCATCTAC", "binding signal (RPM ratio (pull-down/input))": 0.377}, {"sequence": "GATGATTGTTCTCCCAGCTGATGAATTGACTAGCTCGAGTAAACAAATTTTCCTAATCTTTCTGTTCAAGCGCCATCTAC", "binding signal (RPM ratio (pull-down/input))": 0.298}, {"sequence": "GATGATTGTTCTCCCAGCTGATGAATTCTAGTTATCGAGTAAACAAATTTTCCTAATCTTTCTGTTCAAGCGCCATCTAC", "binding signal (RPM ratio (pull-down/input))": 1.05}, {"sequence": "GATGATTGTTCTCCCAGCTGATGAATTTCGTTTGTCGAGTAAACAAATTTTCCTAATCTTTCTGTTCAAGCGCCATCTAC", "binding signal (RPM ratio (pull-down/input))": 3.81}, {"sequence": "GATGATTGTTCTCCCAGCTGATGAATTGAGCCCTTCGAGTAAACAAATTTTCCTAATCTTTCTGTTCAAGCGCCATCTAC", "binding signal (RPM ratio (pull-down/input))": 0.799}, {"sequence": "GATGATTGTTCTCCCAGCTGATGAATTTTATAGTTCGAGTAAACAAATTTTCCTAATCTTTCTGTTCAAGCGCCATCTAC", "binding signal (RPM ratio (pull-down/input))": 0.933}, {"sequence": "GATGATTGTTCTCCCAGCTGATGAATTATCGACTTCGAGTAAACAAATTTTCCTAATCTTTCTGTTCAAGCGCCATCTAC", "binding signal (RPM ratio (pull-down/input))": 0.534}, {"sequence": "GATGATTGTTCTCCCAGCTGATGAATTTGAGAACTCGAGTAAACAAATTTTCCTAATCTTTCTGTTCAAGCGCCATCTAC", "binding signal (RPM ratio (pull-down/input))": 0.225}, {"sequence": "GATGATTGTTCTCCCAGCTGATGAATTAGACAGTTCGAGTAAACAAATTTTCCTAATCTTTCTGTTCAAGCGCCATCTAC", "binding signal (RPM ratio (pull-down/input))": 0.365}, {"sequence": "GATGATTGTTCTCCCAGCTGATGAATTCCGGATGTCGAGTAAACAAATTTTCCTAATCTTTCTGTTCAAGCGCCATCTAC", "binding signal (RPM ratio (pull-down/input))": 0.333}, {"sequence": "GATGATTGTTCTCCCAGCTGATGAATTGGCTATGTCGAGTAAACAAATTTTCCTAATCTTTCTGTTCAAGCGCCATCTAC", "binding signal (RPM ratio (pull-down/input))": 0.789}, {"sequence": "GATGATTGTTCTCCCAGCTGATGAATTGGCCGTGTCGAGTAAACAAATTTTCCTAATCTTTCTGTTCAAGCGCCATCTAC", "binding signal (RPM ratio (pull-down/input))": 0.363}]}]}
